The campaign covered roughly 360,000 compounds. About 25,000 (6.9%) were called active. Inconclusive means that the source gave no clear call. Such entries were picked first, then a sample of the others. The call rests on the fitted dose curve; in most records, active means well fitted inhibition curve with a large enough effect; inconclusive means small, poorly fitted or top-dose-only effect; inactive means flat fitted curve, though single readings scatter. Potencies of inconclusive entries are doubtful fits and often do not repeat.
target: Luciferin 4-monooxygenase (Photinus pyralis) (UniProt P08659); assay: qHTS profiling assay for firefly luciferase inhibitor/activator using purifed enzyme and Km concentrations of substrates (counterscreen for miR-21 project); details: purified FLuc, luminescence inhibition; series mostly up to 57.5 µM; activity change, negative = inhibition: at the top concentration; further: nearly all actives have a fitted effect of over 55% in size;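 on activity change, negative = inhibition: plate controls were vehicle for no effect and reference inhibitor for full effect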
UniProt P08659, sequence (P08659 whole entry, looked up): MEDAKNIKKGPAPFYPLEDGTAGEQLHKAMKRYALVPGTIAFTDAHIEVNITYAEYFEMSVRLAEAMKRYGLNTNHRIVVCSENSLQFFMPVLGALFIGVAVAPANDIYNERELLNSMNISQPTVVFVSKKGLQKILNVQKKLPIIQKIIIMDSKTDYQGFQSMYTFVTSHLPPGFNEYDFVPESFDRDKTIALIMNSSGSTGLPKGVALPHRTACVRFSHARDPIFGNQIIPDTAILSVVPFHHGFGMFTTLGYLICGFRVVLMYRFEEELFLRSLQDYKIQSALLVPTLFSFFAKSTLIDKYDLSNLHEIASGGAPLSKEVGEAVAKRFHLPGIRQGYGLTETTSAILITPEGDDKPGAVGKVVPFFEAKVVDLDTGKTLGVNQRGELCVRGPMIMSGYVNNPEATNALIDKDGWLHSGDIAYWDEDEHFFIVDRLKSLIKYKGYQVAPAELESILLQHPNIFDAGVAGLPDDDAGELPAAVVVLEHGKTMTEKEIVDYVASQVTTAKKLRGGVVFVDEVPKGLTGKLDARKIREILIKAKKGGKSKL
How it was run: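 Biochemical qHTS of compounds, final roughly 60 µM downward over six points, against 10 nM purified firefly luciferase using Km concentrations of substrates (10 uM D-luciferin, 10 uM ATP) in Tris acetate pH 7.5 buffer; luminescence output.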
Potency means the concentration at half of the fitted maximal effect; tags describe the fitted curve by direction and shape.

With `CC(C)CCN1CCNC(=O)C1CC(=O)N(C)CCCN1CCOCC1` (centres undefined) as the compound, how does the “activity change, negative = inhibition” value read?
The value was inactive: -0.344%.

With `COc1cc2nc(CN(C)Cc3ccc(C(C)(C)C)cc3)[nH]c(=O)c2cc1OC` as the compound, how does the Potency read?
The Potency was inconclusive: 26.9 µM [inhibitor, partial curve, poor fit].

`Cc1ccc(SCC(=O)Nc2cccc(-c3nc4cc(Cl)ccc4o3)c2C)cc1` was tested. Which Potency did it give?
The Potency was inconclusive: 16.9 µM [inhibitor, partial curve, poor fit].

`CCc1ccc(OCC(=O)NCCOc2ccccc2)cc1` was tested. Which Potency did it give?
Its Potency is inconclusive: 26.9 µM [inhibitor, partial curve].

`COc1ccc2c(c1)C(C)CC(C)(C)N2C(=O)Nc1ccccc1` (centres undefined) was tested. Which Potency did it give?
The Potency was inconclusive: 37.9 µM [inhibitor, partial curve, poor fit].

How did the “activity change, negative = inhibition” value turn out when `CCCOc1ccc(CNC(=O)C2CCN(c3nc4ccccc4nc3C(F)(F)F)CC2)cc1` was run?
Its value is inactive: 6.41%.

`Cc1ccc(C(=O)N2CCc3ccccc32)o1` was tested. Which Potency did it give?
The Potency was active: 9.53 µM.

`COc1ccc(-c2csc(NC(=O)COC(=O)Cc3ccc(Cl)cc3Cl)n2)cc1` was tested. Which Potency did it give?
Its Potency is inconclusive: 33.8 µM [inhibitor, partial curve, poor fit].

Which “activity change, negative = inhibition” value does the source give for `O=C(CCC1N=C2c3ccccc3N=C(SCc3cccc(F)c3)N2C1=O)NC1CCCCC1` (centres undefined) here?
Its value is inactive: -4.58%.

For `Cc1onc(-c2ccccc2)c1C(=O)Nc1nnc(CC(C)C)s1`, which “activity change, negative = inhibition” value is on record?
The value was inactive: -0.353%.

Which “activity change, negative = inhibition” value does the source give for `Cc1nn2c(=O)c3c4c(sc3nc2n1-c1ccccc1)COC(C)(C)C4` here?
The value was inactive: 2.07%.

How did the Potency turn out when `COc1ccc(OC)c(CCNC(=O)Cn2sc3nc(C)cc(C)c3c2=O)c1` was run?
Its Potency is inconclusive: 5.36 µM [inhibitor, partial curve].

Which Potency does the source give for `O=C(NN=C1CCCCCC1)c1ccc(Cl)s1` here?
The Potency was inconclusive: 19 µM [inhibitor, partial curve].

With `COc1ccccc1CCNC(=O)c1cc2ccccn2n1` as the compound, how does the Potency read?
Its Potency is inconclusive: 23.9 µM [inhibitor, partial curve].

For `COc1ccc(C(C(=O)NC(C)(C)C)N(C(=O)CCC(=O)Nc2cc(C)on2)c2ccccc2F)cc1` (centres undefined), which “activity change, negative = inhibition” value is on record?
The value was inactive: 0.488%.

`O=C(/C=C/c1ccc(Cl)cc1)NC(=S)Nc1ccccc1C(=O)O` was tested. Which Potency did it give?
The Potency was inconclusive: 33.8 µM [inhibitor, partial curve, poor fit].

With `CCOC(=O)c1cnc2c(C)cccc2c1Nc1cccc(C(=O)O)c1` as the compound, how does the Potency read?
Its Potency is inconclusive: 33.8 µM [inhibitor, partial curve, poor fit].

`CCOC(=O)c1c(/N=C/c2ccc(OC)cc2O)sc2c1CCN(C)C2` was tested. Which Potency did it give?
The Potency was inconclusive: 23.9 µM [inhibitor, partial curve].

With `O=C(/C=C/c1ccccc1)NC(N1CCOCC1)C(Cl)(Cl)Cl` (centres undefined) as the compound, how does the Potency read?
Its Potency is inconclusive: 23.9 µM [inhibitor, partial curve, poor fit].

For `Cc1ccc(-c2cc(-c3ccc(C)o3)nc(N)c2C#N)cc1`, which Potency is on record?
The Potency was inconclusive: 16.9 µM [inhibitor, partial curve, poor fit].

With `O=S(=O)(/C=C/c1ccccc1)Oc1ccccc1` as the compound, how does the Potency read?
The Potency was inconclusive: 26.9 µM [inhibitor, single point].

How did the Potency turn out when `COc1ccccc1CNC(=O)C1CCN(S(=O)(=O)c2cccc3cccnc23)CC1` was run?
The Potency was inconclusive: 37.9 µM [inhibitor, partial curve, poor fit].

With `Cc1ccccc1N(Cc1cc(=O)[nH]c2ccccc12)C(=O)C(C)C` as the compound, how does the “activity change, negative = inhibition” value read?
The value was inactive: -1.25%.

Which Potency does the source give for `O=S(=O)(Nc1ccc2c(c1)OCCO2)c1cccs1` here?
The Potency was inconclusive: 21.3 µM [inhibitor, single point].

With `Cc1ccc(C(=O)N2CCN(c3ccccc3F)CC2)cc1NC(=O)c1nsc2ccccc12` as the compound, how does the “activity change, negative = inhibition” value read?
Its value is inactive: -12.9%.

With `CCN(C(=O)C1CCN(c2nc(-c3ccc(OC)cc3)no2)CC1)c1ccccc1` as the compound, how does the Potency read?
Its Potency is inconclusive: 37.9 µM [inhibitor, partial curve, poor fit].

With `Cc1cc2nc(-c3ccccn3)c(-c3ccccn3)nc2cc1C` as the compound, how does the Potency read?
The Potency was active: 4.78 µM.

With `O=C(Nc1ccc2oc(-c3ccncc3)nc2c1)c1ccc2c(c1)OCO2` as the compound, how does the Potency read?
The Potency was inconclusive: 8.49 µM [inhibitor, partial curve, poor fit].

Which “activity change, negative = inhibition” value does the source give for `Cc1csc(NC(=O)CCC(=O)N(CC(=O)NC2CCCC2)Cc2ccccc2)n1` here?
Its value is inactive: 1.5%.

For `Nc1ccc(C#Cc2ccc3c(=O)c4ccccc4oc3c2)cc1`, which Potency is on record?
Its Potency is inconclusive: 6.01 µM [inhibitor, partial curve].

With `CN(C)c1ccc(/C=N/NC(=O)CCc2nc3ccccc3[nH]2)cc1` as the compound, how does the Potency read?
Its Potency is inconclusive: 19 µM [inhibitor, partial curve, poor fit].

With `C=CCNc1oc(/C=C/c2ccccc2)nc1C#N` as the compound, how does the Potency read?
The Potency was active: 4.78 µM.

For `COc1ccc(NC(=S)N2CCc3ccccc32)cc1OC`, which Potency is on record?
Its Potency is inconclusive: 37.9 µM [inhibitor, partial curve, poor fit].

`CCn1c(=S)[nH]c2scc(-c3cccs3)c2c1=O` was tested. Which Potency did it give?
Its Potency is inconclusive: 30.1 µM [inhibitor, single point].

For `CCOc1ccc(/C=C/C(=O)NC2CCCCC2)cc1`, which Potency is on record?
Its Potency is inconclusive: 33.8 µM [inhibitor, partial curve, poor fit].

`Cc1ccccc1NC(=O)CN(C)S(=O)(=O)c1cccc2nsnc12` was tested. Which “activity change, negative = inhibition” value did it give?
Its value is inactive: 2.73%.

How did the Potency turn out when `CCOc1ccc(C(=O)NCCCCNC(=O)c2ccc(OCC)cc2)cc1` was run?
Its Potency is inconclusive: 8.49 µM [inhibitor, partial curve, poor fit].

For `CC(=O)Nc1ccc2nc3ccccc3nc2c1`, which Potency is on record?
The Potency was active: 19 µM.

How did the Potency turn out when `COc1ccc(-c2cc(C(=O)OCC(=O)Nc3cc(C)on3)c3ccccc3n2)cc1OC` was run?
The Potency was inconclusive: 3.79 µM [inhibitor, partial curve, poor fit].

For `COCCn1cnc2c1c(=O)n(Cc1cc(C(C)=O)ccc1OC)c(=O)n2Cc1ccccc1`, which “activity change, negative = inhibition” value is on record?
Its value is inactive: 0.181%.

`CCC1CCC(C(=O)NC(C(=O)Nc2ccc3c(c2)OCCO3)C(C)C)CC1` (centres undefined) was tested. Which Potency did it give?
The Potency was inconclusive: 23.9 µM [inhibitor, single point].

Which “activity change, negative = inhibition” value does the source give for `CCn1cc(/C=C(\NC(=O)c2ccc(OC)cc2)C(=O)N2CCOCC2)c2ccccc21` here?
The value was inactive: 1.58%.

Which Potency does the source give for `Cc1ccc(NC(=O)CSc2n[nH]c(-c3ccncc3)n2)cc1` here?
The Potency was inconclusive: 26.9 µM [inhibitor, partial curve, poor fit].

With `COc1ccccc1OCc1ccc(C(=O)Nc2ccc(C)c(C)c2)o1` as the compound, how does the Potency read?
The Potency was inconclusive: 10.7 µM [inhibitor, partial curve, poor fit].

— PubChem BioAssay AID588342 (National Center for Advancing Translational Sciences (NCATS), 2011)
